The campaign covered roughly 120,000 compounds. About 5,300 (4.4%) were called active. This list was built around the results that the source calls inconclusive (neither active nor inactive); the mix of calls is not that of the screen. Calls come from the whole dose curve; as a rule, active = well fitted inhibition curve with a large enough effect; inconclusive = small, poorly fitted or top-dose-only effect; inactive = no such curve, though single readings can be large or run the other way. Potencies of inconclusive entries are doubtful fits and often do not repeat.
Assay: qHTS Primary assay for Inhibitors of Plasmodium falciparum Dd2 growth in vitro; note: nearly all actives have a fitted effect of over 65% in size;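 for activity, negative = inhibition: plate controls were DMSO vehicle for no effect and reference drug for full effect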
Details: P. falciparum Dd2 growth, SYBR Green, 72 h; activity, negative = inhibition: at 28.9 µM (top of the series) unless noted; series mostly up to 28.9 µM
Procedure, shortened: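 Infected erythrocytes (Dd2, 0.3% parasitemia, 2.5% hematocrit final) are added to compound in RPMI-1640/Albumax II medium, grown 72 h at 37C in low oxygen, then lysed with saponin/Triton-X containing SYBR Green and read by fluorescence.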
Potency is the fitted concentration of half-maximal effect; tags give direction and shape of the fitted curve.

| Compound | outcome | activity, negative = inhibition | Potency |
| --- | --- | --- | --- |
| Cc1ccc(C2NC(=O)N(CC(=O)NCCc3ccc(Cl)cc3)C3=C2C(=O)OC3)cc1 (centres undefined) | inactive |  |  |
| CC(C)OC(=O)NN(C(=O)OC(C)C)[C@@H]1C=C(C(=O)N[C@H](C)C(N)=O)C[C@@H](O)[C@H]1O |  | inactive: -4.92% [at 44.1 µM] |  |
| Cc1onc(C(=O)NC2CCc3nn(C)c(=O)n3CC2)c1COc1ccccc1 (centres undefined) |  | inactive: -0.567% |  |
| Nc1ncccc1CN1CCC2(CC1)COCCN2C(=O)OCc1ccccc1 |  |  | inconclusive: 12.6 µM [inhibitor, partial curve, poor fit] |
| COc1ccc(C(=O)N2CCCCCCNC(=O)[C@@H]3C[C@@H](c4nc(C(C)C)no4)C[C@@H]32)cn1 |  |  | inconclusive: 17.8 µM [inhibitor, single point] |
| O=C(Cn1nc2c(cc1=O)CCCCC2)NCCc1nnc2ccccn12 |  | inactive: -10.8% |  |
| Cc1ccc(Cn2c(SCc3ccc(C(=O)NC4CCCCC4)cc3)nc3ccncc32)cc1 |  |  | active: 11.2 µM |
| COc1ccccc1-c1ccc(C(=O)N2CCCC[C@H](N(C)C)C2)cc1 |  | inactive: -23% |  |
| COc1ccc(C(=O)N2CCC3(CC2)N=C(c2ccc(Br)cc2)NO3)cc1OC |  |  | inconclusive: 14.1 µM [inhibitor, partial curve, poor fit] |
| O=C1CC2(CCN([S+](=O)([O-])c3ccccc3)C2)Nc2ccccc2N1 (centres undefined) |  | inactive: 1.68% |  |
| CN(C(=O)c1ccc2c(c1)N(Cc1cccc(Cl)c1)C(=O)c1ccccc1S2(=O)=O)C1CCCCC1 |  |  | inconclusive: 11.2 µM [inhibitor, single point] |
| CCC(C)NC(=O)CC1=CSC2=NC(C)=C(C(=O)Nc3ccccc3)C(c3cccc(C)c3)N12 (centres undefined) |  | inactive: -12.2% |  |
| COc1cc(/C=C/c2nc(C#N)c(N3CCN(C)CC3)o2)cc(OC)c1OC |  | inactive: -12.9% |  |
| O[C@@H]1C[C@@H](c2nc(-c3ccccn3)no2)N(Cc2cccs2)C1 |  |  | inconclusive: 14.1 µM [inhibitor, partial curve, poor fit] |
| Cc1ccc(CN2CCC(CNC(=O)c3cnn(-c4ccccc4Cl)c3C3CCN(C(=O)OC(C)(C)C)CC3)CC2)cc1 |  |  | active: 2.82 µM |
| O=C(NCc1ccc(Cl)cc1)c1c[nH]c2ncccc12 |  |  | inconclusive: 31.6 µM [inhibitor, single point] |
| CC1=C[C@@H](CNC(=O)NC(C)C)[C@H](C(C)C)C[C@H]1Cc1nnc(-c2ccccc2F)o1 |  |  | inconclusive: 11.2 µM [inhibitor, partial curve] |
| C[C@H]1[C@@H]2[C@@H](O)C([C@H](C)C(=O)N(C)Cc3ccccc3)CC[C@@]2(C)CC[C@@H]1NC(=O)Cc1ccccc1 (some centres undefined) |  |  | inconclusive: 3.55 µM [inhibitor, full curve, poor fit] |
| O=C1Nc2ccc(-c3ccc4c(c3)OCO4)cc2C(=O)N2CCN(C(=O)COc3ccccc3)C[C@H]12 | inactive |  |  |
| Cc1cccc(CN2CCCC(CO)CCNC(=O)CC2)c1 (centres undefined) |  | inactive: -16% |  |
| CCn1c(C(=O)OC)c(NC(=O)C2CCOC2)c2cc(NC(C)Cc3ccccc3OC)cnc21 (centres undefined) | inactive |  |  |
| Cc1nc(N2CCC(C(=O)NCC3CCCCC3)CC2)cc(C(F)(F)F)n1 |  | inactive: -18.6% |  |
| CC(C)(C)c1ccc(NC(=O)O[C@@H]2CO[C@H]3[C@@H]2OC[C@@H]3Nc2nccc(-c3cccs3)n2)cc1 |  | inactive: -4.51% |  |

| Compound | outcome | activity, negative = inhibition | Potency |
| --- | --- | --- | --- |
| COCCN1Cc2[nH]nc(-c3cc(OC)ccc3OC)c2CC1=O |  | inactive: -21.5% [at 44.1 µM] |  |
| CCSc1nn(CC(=O)Nc2cccc(CC)c2)c(N)c1S(=O)(=O)c1ccccc1 |  |  | inconclusive: 10 µM [inhibitor, single point] |
| CC(C)(C)OC(=O)N1CCC(c2c(C(=O)NCc3ccccc3)cnn2-c2cccc(F)c2)CC1 |  |  | active: 10 µM |
| COc1ccccc1-c1nc2n(n1)C(c1ccccc1Cl)C(C(=O)Nc1cccnc1)=C(C)N2 (centres undefined) |  |  | inconclusive: 17.8 µM [inhibitor, single point] |
| CCCCn1cc(S(=O)(=O)c2ccc(C)cc2)c(=O)c2cc(F)c(N3CCCCC3)cc21 |  | inactive: -6.55% |  |
| CCOc1ccccc1NC(=O)CSc1nnc2[nH]c(=O)cc(C)n12 |  | inactive: 7.84% |  |
| CN1CCC(OC2CCN(S(=O)(=O)c3ccc(F)cc3F)CC2)CC1 |  | inactive: -3.45% |  |
| COc1ccc(NC(=O)c2c(OC)cc(=O)n3c2CCCC3)cc1OC | inactive |  |  |
| Cc1ccc(-c2nc(CCNC(=O)c3ccc(C)c(C)c3)cs2)cc1 |  | inactive: 14.5% |  |
| COCC1CN(S(=O)(=O)c2ccc(F)c(C)c2)CC12CCNCC2 (centres undefined) |  |  | inconclusive: 17.8 µM [inhibitor, single point] |
| O=C(O)COc1ccc(-c2nccc3c2C(=O)N(Cc2c[nH]c4ccccc24)CC(COc2ccc(F)cc2F)O3)cc1 (centres undefined) |  |  | inconclusive: 12.6 µM [inhibitor, partial curve, poor fit] |
| COc1ccc2c(c1)c1c(c(=O)n(-c3ccccc3C)c(=O)n1Cc1cccc(C(F)(F)F)c1)n2C |  |  | inconclusive: 15.8 µM [inhibitor, single point] |
| COc1ccc(-c2cnc([C@@H]3COCCN3Cc3cn(C)c4ccccc34)[nH]2)cc1 |  |  | inconclusive: 20 µM [inhibitor, single point] |
| CCC1=Nc2cc(C(=O)NCCC(C)C)ccc2Sc2ccc(Br)cc21 |  |  | active: 12.6 µM |
| CSCCC(=O)N1CCC2(CC1)CC(c1ccccc1)C(=O)N2C (centres undefined) |  | inactive: -7.02% |  |
| Cc1cccc(CNC(=O)Cn2c(-c3cccs3)cc3ccccc32)c1 |  |  | active: 11.2 µM |
| COc1cc(CN2CC[C@@H]3CN(S(C)(=O)=O)[C@@H]3C2)ccc1F |  |  | inconclusive: 17.8 µM [inhibitor, single point] |
| COc1cccc(NC(=O)CN2C(=O)c3cccc4cccc2c34)c1 |  | inactive: 35.1% |  |
| COC1CCC12CCN(C(=O)c1ccc(C)nc1)CC2 (centres undefined) |  | inactive: 23% |  |
| Cc1cc(Cl)ccc1S(=O)(=O)N1C[C@H](F)C[C@@H]1C(=O)N1CCOCC1 |  | inactive: 18.4% |  |
| Cc1cc(C)cc(C(=O)N2CCC(Oc3ncccc3C(=O)N(C)C)C2)c1 (centres undefined) |  | inactive: -11.5% |  |
| COc1ccc(OC)c(S(=O)(=O)N2CCC(c3ncc(C)n3C(C)C)C2)c1 (centres undefined) |  |  | inconclusive: 2.24 µM [inhibitor, single point] |
| O=C1Nc2ccc(-c3cccs3)cc2C(=O)N2CC[C@H](NS(=O)(=O)c3cccs3)[C@@H]12 |  |  | inconclusive: 3.98 µM [inhibitor, partial curve, poor fit] |

| Compound | outcome | activity, negative = inhibition | Potency |
| --- | --- | --- | --- |
| Cc1ccc(CSc2nc3cccnc3n2Cc2ccc(C(=O)NCc3ccco3)cc2)cc1 |  |  | inconclusive: 5.62 µM [inhibitor, partial curve] |
| Oc1ccc(Cl)cc1C1=Nc2ccccc2N=C(c2ccccc2)C1 |  |  | inconclusive: 10 µM [inhibitor, single point] |
| COC1CN(c2ccc(C)cc2)C12CCN(C(=O)Cc1cccc(F)c1)CC2 (centres undefined) |  |  | inconclusive: 2.82 µM [inhibitor, full curve] |
| CCS(=O)(=O)c1ncc(CN(C)CCOc2ccc(C)cc2)n1Cc1ccccc1 |  |  | inconclusive: 8.91 µM [inhibitor, single point] |
| CCOC(=O)c1cnc2cc(C(F)(F)F)ccc2c1Nc1ccc(F)cc1F |  |  | inconclusive: 3.98 µM [inhibitor, single point] |
| Cc1ccc(C(=O)N2C(C(=O)NCc3ccccc3)COC23CCN(C(=O)C2CC2)CC3)cc1 (centres undefined) |  |  | inconclusive: 8.91 µM [inhibitor, single point] |
| COc1cc2c(cc1OCc1ccncc1)NC(=O)C21CCN(c2ccccn2)CC1 | inactive [at 44.1 µM] |  |  |
| CCC(=O)N1CCc2cc(CNS(=O)(=O)c3cc(OC)ccc3OC)ccc21 |  |  | inconclusive: 7.94 µM [inhibitor, partial curve, poor fit] |
| CC(C)(C)C(=O)Nc1ccc(-c2nc3ccc(NC(=O)C(C)(C)C)cc3[nH]2)cc1 |  |  | inconclusive: 12.6 µM [inhibitor, single point] |
| CC(C)CNC(=O)c1ccc2c(c1)C1(CCN(C)C1)CN2CC1CC1 (centres undefined) | inactive [at 44.1 µM] |  |  |
| O=C(c1ccn[nH]1)N1[C@H]2CC[C@@H]1c1cnc(-c3ccccc3)nc1C2 |  |  | inconclusive: 3.98 µM [inhibitor, full curve] |
| CCc1nc2ccc(C(=O)N3CCN(c4cc(Cl)ccc4C)CC3)cc2nc1CC |  |  | active: 11.2 µM |
| CC(=O)Nc1cccc(C(=O)NCCn2ccn3nc(-c4ccc(F)cc4)cc3c2=O)c1 |  | inactive: -1.25% |  |
| Cn1ccc(CN2CCn3c(nn(-c4ccc(F)cc4F)c3=O)C2)n1 |  | inactive: -1.92% |  |
| COCCOc1ccc2c(n1)CCN(C(=O)c1ccc(OC)nc1)C2 |  | inactive: -9.98% |  |
| Cc1ccc(-n2c(=O)c3sc4ccccc4c3n(CC(=O)NC3CCCC3)c2=O)cc1C |  |  | inconclusive: 15.8 µM [inhibitor, single point] |
| COc1ccc(OC)c(CCNC(=O)c2cc3c(s2)-c2c(C)cccc2OC3)c1 |  |  | inconclusive: 0.891 µM [inhibitor, partial curve, poor fit] |
| Cc1ccc(Nc2c(-c3c[nH]c4ccccc34)nc3ccccn23)cc1 |  |  | inconclusive: 11.2 µM [inhibitor, partial curve, poor fit] |
| Cc1cnc(CCNC(=O)CC2CCCCC2)n1CC1CC1 |  |  | inconclusive: 1.41 µM [inhibitor, partial curve, poor fit] |
| COc1ccc(-c2nc(CN3CCOC(CN)C3)c(C)o2)c2ccccc12 (centres undefined) |  |  | active: 12.6 µM |
| O=C(NCCS(=O)(=O)N1CCN(c2ccc(F)cc2)CC1)C(c1ccccc1)c1ccccc1 |  |  | inconclusive: 17.8 µM [inhibitor, single point] |
| CC(=O)N1CCC(CC(=O)NCC(=O)N2CCCCCCNC(=O)CC2c2ccccc2)CC1 (centres undefined) |  |  | inconclusive: 3.98 µM [inhibitor, single point] |
| Fc1ccc(C(c2nnc(-c3ccccc3)o2)N2CCN(c3cccc(Cl)c3)CC2)cc1 (centres undefined) |  |  | inconclusive: 11.2 µM [inhibitor, single point] |

— PubChem BioAssay AID1347417 (National Center for Advancing Translational Sciences (NCATS), 2020)
